Results are given in words; binding and its absence hold for the method and conditions named. Binding seen in cells or lysates may run through a third protein. Some binding calls cover weakened binding; strength is not graded here. Tags and fused reporters may be left off the sequences shown. Each block holds one binder with its values, some of them ahead of it.
What was measured:
[1] = target: T1, GST-tagged VPS41 RING domain (residues 778–854) (human) (UniProt P49754); assay: pull-down; 0.5 nmol purified GST-tagged bait on magnetic glutathione beads; prey myc-tagged, wheat germ cell-free expression reaction; 4°C, 60 min; 20 mM Tris, 200 mM NaCl, 0.1% NP-40, 1 mM DTT, 1 mM EDTA; anti-myc immunoblot; only the target purified
T1 sequence: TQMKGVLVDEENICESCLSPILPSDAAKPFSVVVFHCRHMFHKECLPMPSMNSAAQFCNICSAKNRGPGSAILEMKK

[2] = target: T2, GST-tagged VPS18 RING domain (residues 842–973) (human) (UniProt Q9P253); assay: as above
T2 sequence: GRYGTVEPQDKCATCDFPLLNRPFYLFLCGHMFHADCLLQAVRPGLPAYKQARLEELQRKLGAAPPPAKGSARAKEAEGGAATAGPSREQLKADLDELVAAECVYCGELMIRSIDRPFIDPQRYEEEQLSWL

[3] = target: T3, EGFP-tagged VPS8 RING long construct (human) (UniProt Q8N3P4); assay: co-IP; HEK293T cells transfected with EGFP-tagged constructs; GFP-TRAP beads; lysis in 10 mM Tris-HCl (pH 7.5), 150 mM NaCl, 0.5 mM EDTA, 0.5% NP-40; immunoblot for endogenous subunits
T3 sequence: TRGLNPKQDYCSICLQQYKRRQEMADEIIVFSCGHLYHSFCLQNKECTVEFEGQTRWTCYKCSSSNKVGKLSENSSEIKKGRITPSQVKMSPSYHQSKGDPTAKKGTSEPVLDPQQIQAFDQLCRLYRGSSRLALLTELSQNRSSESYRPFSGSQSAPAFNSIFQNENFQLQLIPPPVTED

[4] = target: T4, EGFP-tagged VPS41 N-terminal construct (residues 1–777) (human) (UniProt P49754); assay: as above
T4 sequence: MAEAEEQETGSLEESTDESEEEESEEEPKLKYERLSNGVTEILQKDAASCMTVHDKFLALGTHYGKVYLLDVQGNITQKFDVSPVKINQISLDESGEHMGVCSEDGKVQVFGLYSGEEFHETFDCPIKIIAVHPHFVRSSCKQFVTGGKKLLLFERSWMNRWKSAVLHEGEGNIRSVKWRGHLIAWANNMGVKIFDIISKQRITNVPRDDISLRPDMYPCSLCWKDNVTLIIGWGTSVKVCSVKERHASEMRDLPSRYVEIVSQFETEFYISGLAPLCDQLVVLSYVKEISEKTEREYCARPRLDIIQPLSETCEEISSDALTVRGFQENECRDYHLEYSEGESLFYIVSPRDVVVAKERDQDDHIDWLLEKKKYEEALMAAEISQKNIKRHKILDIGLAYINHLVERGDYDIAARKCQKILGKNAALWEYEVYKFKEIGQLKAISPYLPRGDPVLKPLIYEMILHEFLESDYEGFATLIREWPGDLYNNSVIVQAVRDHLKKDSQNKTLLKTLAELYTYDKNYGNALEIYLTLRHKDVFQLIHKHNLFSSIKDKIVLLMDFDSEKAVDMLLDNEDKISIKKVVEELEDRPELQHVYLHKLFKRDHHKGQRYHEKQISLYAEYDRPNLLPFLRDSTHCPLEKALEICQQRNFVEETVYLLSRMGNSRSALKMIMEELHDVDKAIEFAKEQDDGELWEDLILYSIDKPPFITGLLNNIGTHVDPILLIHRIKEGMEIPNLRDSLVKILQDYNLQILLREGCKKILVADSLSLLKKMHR

[5] = target: T5, EGFP-tagged VPS8 RING short construct (human) (UniProt Q8N3P4); assay: as above
T5 sequence: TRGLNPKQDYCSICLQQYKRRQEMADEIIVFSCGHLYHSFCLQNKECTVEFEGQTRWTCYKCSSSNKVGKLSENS

B3: endogenous VPS33A (protein, UniProt Q96AX1 1-596)
chain: MAAHLSYGRVNLNVLREAVRRELREFLDKCAGSKAIVWDEYLTGPFGLIAQYSLLKEHEVEKMFTLKGNRLPAADVKNIIFFVRPRLELMDIIAENVLSEDRRGPTRDFHILFVPRRSLLCEQRLKDLGVLGSFIHREEYSLDLIPFDGDLLSMESEGAFKECYLEGDQTSLYHAAKGLMTLQALYGTIPQIFGKGECARQVANMMIRMKREFTGSQNSIFPVFDNLLLLDRNVDLLTPLATQLTYEGLIDEIYGIQNSYVKLPPEKFAPKKQGDGGKDLPTEAKKLQLNSAEELYAEIRDKNFNAVGSVLSKKAKIISAAFEERHNAKTVGEIKQFVSQLPHMQAARGSLANHTSIAELIKDVTTSEDFFDKLTVEQEFMSGIDTDKVNNYIEDCIAQKHSLIKVLRLVCLQSVCNSGLKQKVLDYYKREILQTYGYEHILTLHNLEKAGLLKPQTGGRNNYPTIRKTLRLWMDDVNEQNPTDISYVYSGYAPLSVRLAQLLSRPGWRSIEEVLRILPGPHFEERQPLPTGLQKKRQPGENRVTLIFFLGGVTFAEIAALRFLSQLEDGGTEYVIATTKLMNGTSWIEALMEKPF
binding [3]: no binding
binding [4]: no binding
binding [5]: no binding

B4: myc-tagged full-length VPS33A (protein, UniProt Q96AX1 1-596)
chain: B3 chain
binding [1]: no binding
binding [2]: no binding

B5: endogenous VPS11 (protein, UniProt Q9H270 1-941)
chain: MAAYLQWRRFVFFDKELVKEPLSNDGAAPGATPASGSAASKFLCLPPGITVCDSGRGSLVFGDMEGQIWFLPRSLQLTGFQAYKLRVTHLYQLKQHNILASVGEDEEGINPLVKIWNLEKRDGGNPLCTRIFPAIPGTEPTVVSCLTVHENLNFMAIGFTDGSVTLNKGDITRDRHSKTQILHKGNYPVTGLAFRQAGKTTHLFVVTTENVQSYIVSGKDYPRVELDTHGCGLRCSALSDPSQDLQFIVAGDECVYLYQPDERGPCFAFEGHKLIAHWFRGYLIIVSRDRKVSPKSEFTSRDSQSSDKQILNIYDLCNKFIAYSTVFEDVVDVLAEWGSLYVLTRDGRVHALQEKDTQTKLEMLFKKNLFEMAINLAKSQHLDSDGLAQIFMQYGDHLYSKGNHDGAVQQYIRTIGKLEPSYVIRKFLDAQRIHNLTAYLQTLHRQSLANADHTTLLLNCYTKLKDSSKLEEFIKKKSESEVHFDVETAIKVLRQAGYYSHALYLAENHAHHEWYLKIQLEDIKNYQEALRYIGKLPFEQAESNMKRYGKILMHHIPEQTTQLLKGLCTDYRPSLEGRSDREAPGCRANSEEFIPIFANNPRELKAFLEHMSEVQPDSPQGIYDTLLELRLQNWAHEKDPQVKEKLHAEAISLLKSGRFCDVFDKALVLCQMHDFQDGVLYLYEQGKLFQQIMHYHMQHEQYRQVISVCERHGEQDPSLWEQALSYFARKEEDCKEYVAAVLKHIENKNLMPPLLVVQTLAHNSTATLSVIRDYLVQKLQKQSQQIAQDELRVRRYREETTRIRQEIQELKASPKIFQKTKCSICNSALELPSVHFLCGHSFHQHCFESYSESDADCPTCLPENRKVMDMIRAQEQKRDLHDQFQHQLKCSNDSFSVIADYFGRGVFNKLTLLTDPPTARLTSSLEAGLQRDLLMHSRRGT
binding [3]: binds
binding [4]: no binding
binding [5]: no binding

The remaining lines, values ahead:

binding [1]: no binding
binding [2]: no binding
B1: myc-tagged full-length VPS16 (protein, UniProt Q9H269 1-839)
chain: MDCYTANWNPLGDSAFYRKYELYSMDWDLKEELRDCLVAAAPYGGPIALLRNPWRKEKAASVRPVLDIYSASGMPLASLLWKSGPVVSLGWSAEEELLCVQEDGAVLVYGLHGDFRRHFSMGNEVLQNRVLDARIFHTEFGSGVAILTGAHRFTLSANVGDLKLRRMPEVPGLQSAPSCWTVLCQDRVAHILLAVGPDLYLLDHAACSAVTPPGLAPGVSSFLQMAVSFTYRHLALFTDTGYIWMGTASLKEKLCEFNCNIRAPPKQMVWCSRPRSKERAVVVAWERRLMVVGDAPESIQFVLDEDSYLVPELDGVRIFSRSTHEFLHEVPAASEEIFKIASMAPGALLLEAQKEYEKESQKADEYLREIQELGQLTQAVQQCIEAAGHEHQPDMQKSLLRAASFGKCFLDRFPPDSFVHMCQDLRVLNAVRDYHIGIPLTYSQYKQLTIQVLLDRLVLRRLYPLAIQICEYLRLPEVQGVSRILAHWACYKVQQKDVSDEDVARAINQKLGDTPGVSYSDIAARAYGCGRTELAIKLLEYEPRSGEQVPLLLKMKRSKLALSKAIESGDTDLVFTVLLHLKNELNRGDFFMTLRNQPMALSLYRQFCKHQELETLKDLYNQDDNHQELGSFHIRASYAAEERIEGRVAALQTAADAFYKAKNEFAAKATEDQMRLLRLQRRLEDELGGQFLDLSLHDTVTTLILGGHNKRAEQLARDFRIPDKRLWWLKLTALADLEDWEELEKFSKSKKSPIGYLPFVEICMKQHNKYEAKKYASRVGPEQKVKALLLVGDVAQAADVAIEHRNEAELSLVLSHCTGATDGATADKIQRARAQAQKK

binding [1]: no binding
binding [2]: no binding
B2: myc-tagged full-length VPS39 (protein, UniProt Q96JC1-2 1-875)
chain: MHDAFEPVPILEKLPLQIDCLAAWEEWLLVGTKQGHLLLYRIRKDVGCNRFEVTLEKSNKNFSKKIQQIHVVSQFKILVSLLENNIYVHDLLTFQQITTVSKAKGASLFTCDLQHTETGEEVLRMCVAVKKKLQLYFWKDREFHELQGDFSVPDVPKSMAWCENSICVGFKRDYYLIRVDGKGSIKELFPTGKQLEPLVAPLADGKVAVGQDDLTVVLNEEGICTQKCALNWTDIPVAMEHQPPYIIAVLPRYVEIRTFEPRLLVQSIELQRPRFITSGGSNIIYVASNHFVWRLIPVPMATQIQQLLQDKQFELALQLAEMKDDSDSEKQQQIHHIKNLYAFNLFCQKRFDESMQVFAKLGTDPTHVMGLYPDLLPTDYRKQLQYPNPLPVLSGAELEKAHLALIDYLTQKRSQLVKKLNDSDHQSSTSPLMEGTPTIKSKKKLLQIIDTTLLKCYLHTNVALVAPLLRLENNHCHIEESEHVLKKAHKYSELIILYEKKGLHEKALQVLVDQSKKANSPLKGHERTVQYLQHLGTENLHLIFSYSVWVLRDFPEDGLKIFTEDLPEVESLPRDRVLGFLIENFKGLAIPYLEHIIHVWEETGSRFHNCLIQLYCEKVQGLMKEYLLSFPAGKTPVPAGEEEGELGEYRQKLLMFLEISSYYDPGRLICDFPFDGLLEERALLLGRMGKHEQALFIYVHILKDTRMAEEYCHKHYDRNKDGNKDVYLSLLRMYLSPPSIHCLGPIKLELLEPKANLQAALQVLELHHSKLDTTKALNLLPANTQINDIRIFLEKVLEENAQKKRFNQVLKNLLHAEFLRVQEERILHQQVKCIITEEKVCMVCKKKIGNSAFARYPNGVVVHYFCSKEVNPADT
